From patent US20220127372A1
Values belong to the binder of their own block, whether it stands above or below them.

Target: human claudin 18.2 (human)
Experiment: cell-based or functional assay

Sequence of human claudin 18.2 (human) (chain, as listed by the source limits assumed, form in doubt): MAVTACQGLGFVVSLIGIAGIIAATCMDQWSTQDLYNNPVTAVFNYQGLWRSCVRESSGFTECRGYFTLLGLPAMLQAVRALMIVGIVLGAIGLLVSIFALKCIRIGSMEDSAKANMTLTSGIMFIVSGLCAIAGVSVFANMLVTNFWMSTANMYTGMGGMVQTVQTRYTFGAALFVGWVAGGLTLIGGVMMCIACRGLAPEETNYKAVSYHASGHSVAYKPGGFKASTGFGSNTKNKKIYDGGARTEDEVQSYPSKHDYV

B1: claudin18.2-LL-CD3ε (protein)
chain: QVQLQESGPGLIKPSQTLSLTCTVSGGSISSGYNWHWIRQPPGKGLEWIGYIHYTGSTNYNPALRSRVTISVDTSKNQFSLKLSSVTAADTAIYYCARIYNGNSFPYWGQGTTVTVSSGGGGSGGGGSGGGGSDIVMTQSPDSLAVSLGERATINCKSSQSLFNSGNQKNYLTWYQQKPGQPPKLLIYWASTRESGVPDRFSGSGSGTDFTLTISSLQAEDVAVYYCQNAYSFPYTFGGGTKLEIKRAAIEVMYPPPYLGGGGSGGGGSGGGGSLE[sequence of about 200 residues omitted]
IFN-γ secretion after co-incubation with BxPC-3-Claudin18.2 cells, 1:1, 24 hours (CBA kit): 2030 | IFN-γ secretion after co-incubation with HGC27-Claudin18.2 cells, 1:1, 24 hours (CBA kit): 1180 | IL-2 secretion after co-incubation with BxPC-3-Claudin18.2 cells, 1:1, 24 hours (CBA kit): 886 | IL-2 secretion after co-incubation with HGC27-Claudin18.2 cells, 1:1, 24 hours (CBA kit): 532 | TNF-α secretion after co-incubation with BxPC-3-Claudin18.2 cells, 1:1, 24 hours (CBA kit): 118 | TNF-α secretion after co-incubation with HGC27-Claudin18.2 cells, 1:1, 24 hours (CBA kit): 107

B2: claudin18.2-LL-CD3γ (protein)
chain: QVQLQESGPGLIKPSQTLSLTCTVSGGSISSGYNWHWIRQPPGKGLEWIGYIHYTGSTNYNPALRSRVTISVDTSKNQFSLKLSSVTAADTAIYYCARIYNGNSFPYWGQGTTVTVSSGGGGSGGGGSGGGGSDIVMTQSPDSLAVSLGERATINCKSSQSLFNSGNQKNYLTWYQQKPGQPPKLLIYWASTRESGVPDRFSGSGSGTDFTLTISSLQAEDVAVYYCQNAYSFPYTFGGGTKLEIKRAAIEVMYPPPYLGGGGSGGGGSGGGGSLE[sequence of about 150 residues omitted]
IFN-γ secretion after co-incubation with BxPC-3-Claudin18.2 cells, 1:1, 24 hours (CBA kit): 813 | IFN-γ secretion after co-incubation with HGC27-Claudin18.2 cells, 1:1, 24 hours (CBA kit): 349 | IL-2 secretion after co-incubation with BxPC-3-Claudin18.2 cells, 1:1, 24 hours (CBA kit): 117 | IL-2 secretion after co-incubation with HGC27-Claudin18.2 cells, 1:1, 24 hours (CBA kit): 27.7 | TNF-α secretion after co-incubation with BxPC-3-Claudin18.2 cells, 1:1, 24 hours (CBA kit): 13.2 | TNF-α secretion after co-incubation with HGC27-Claudin18.2 cells, 1:1, 24 hours (CBA kit): 13.8

Results, then the binder that gave them:

IFN-γ secretion after co-incubation with BxPC-3-Claudin18.2 cells, 1:1, 24 hours (CBA kit): 1870 | IFN-γ secretion after co-incubation with HGC27-Claudin18.2 cells, 1:1, 24 hours (CBA kit): 1030 | IL-2 secretion after co-incubation with BxPC-3-Claudin18.2 cells, 1:1, 24 hours (CBA kit): 900 | IL-2 secretion after co-incubation with HGC27-Claudin18.2 cells, 1:1, 24 hours (CBA kit): 541 | TNF-α secretion after co-incubation with BxPC-3-Claudin18.2 cells, 1:1, 24 hours (CBA kit): 83.1 | TNF-α secretion after co-incubation with HGC27-Claudin18.2 cells, 1:1, 24 hours (CBA kit): 62.9
B3: claudin18.2-SL-CD3ε (protein)
chain: QVQLQESGPGLIKPSQTLSLTCTVSGGSISSGYNWHWIRQPPGKGLEWIGYIHYTGSTNYNPALRSRVTISVDTSKNQFSLKLSSVTAADTAIYYCARIYNGNSFPYWGQGTTVTVSSGGGGSGGGGSGGGGSDIVMTQSPDSLAVSLGERATINCKSSQSLFNSGNQKNYLTWYQQKPGQPPKLLIYWASTRESGVPDRFSGSGSGTDFTLTISSLQAEDVAVYYCQNAYSFPYTFGGGTKLEIKRAAAGGGGSGGGGSGGGGSLE[sequence of about 200 residues omitted]

IFN-γ secretion after co-incubation with BxPC-3-Claudin18.2 cells, 1:1, 24 hours (CBA kit): 1460 | IFN-γ secretion after co-incubation with HGC27-Claudin18.2 cells, 1:1, 24 hours (CBA kit): 762 | IL-2 secretion after co-incubation with BxPC-3-Claudin18.2 cells, 1:1, 24 hours (CBA kit): 440 | IL-2 secretion after co-incubation with HGC27-Claudin18.2 cells, 1:1, 24 hours (CBA kit): 279 | TNF-α secretion after co-incubation with BxPC-3-Claudin18.2 cells, 1:1, 24 hours (CBA kit): 34.2 | TNF-α secretion after co-incubation with HGC27-Claudin18.2 cells, 1:1, 24 hours (CBA kit): 45.1
B4: claudin18.2-SL-CD3γ (protein)
chain: QVQLQESGPGLIKPSQTLSLTCTVSGGSISSGYNWHWIRQPPGKGLEWIGYIHYTGSTNYNPALRSRVTISVDTSKNQFSLKLSSVTAADTAIYYCARIYNGNSFPYWGQGTTVTVSSGGGGSGGGGSGGGGSDIVMTQSPDSLAVSLGERATINCKSSQSLFNSGNQKNYLTWYQQKPGQPPKLLIYWASTRESGVPDRFSGSGSGTDFTLTISSLQAEDVAVYYCQNAYSFPYTFGGGTKLEIKRAAAGGGGSGGGGSGGGGSLE[sequence of about 150 residues omitted]
